# Out of some 310,000 compounds screened, about 2,200 (0.71%) showed an effect of 50% or more. The effect is printed as a negative number. The list shows a part of the results.
# Biological target: human ether-à-go-go-related gene (hERG) potassium channel (human, UniProt Q12809)
# Experiment: primary screen, population patch clamp on CHO cells stably expressing hERG
# human ether-à-go-go-related gene (hERG) potassium channel, sequence (Q12809 whole entry, looked up): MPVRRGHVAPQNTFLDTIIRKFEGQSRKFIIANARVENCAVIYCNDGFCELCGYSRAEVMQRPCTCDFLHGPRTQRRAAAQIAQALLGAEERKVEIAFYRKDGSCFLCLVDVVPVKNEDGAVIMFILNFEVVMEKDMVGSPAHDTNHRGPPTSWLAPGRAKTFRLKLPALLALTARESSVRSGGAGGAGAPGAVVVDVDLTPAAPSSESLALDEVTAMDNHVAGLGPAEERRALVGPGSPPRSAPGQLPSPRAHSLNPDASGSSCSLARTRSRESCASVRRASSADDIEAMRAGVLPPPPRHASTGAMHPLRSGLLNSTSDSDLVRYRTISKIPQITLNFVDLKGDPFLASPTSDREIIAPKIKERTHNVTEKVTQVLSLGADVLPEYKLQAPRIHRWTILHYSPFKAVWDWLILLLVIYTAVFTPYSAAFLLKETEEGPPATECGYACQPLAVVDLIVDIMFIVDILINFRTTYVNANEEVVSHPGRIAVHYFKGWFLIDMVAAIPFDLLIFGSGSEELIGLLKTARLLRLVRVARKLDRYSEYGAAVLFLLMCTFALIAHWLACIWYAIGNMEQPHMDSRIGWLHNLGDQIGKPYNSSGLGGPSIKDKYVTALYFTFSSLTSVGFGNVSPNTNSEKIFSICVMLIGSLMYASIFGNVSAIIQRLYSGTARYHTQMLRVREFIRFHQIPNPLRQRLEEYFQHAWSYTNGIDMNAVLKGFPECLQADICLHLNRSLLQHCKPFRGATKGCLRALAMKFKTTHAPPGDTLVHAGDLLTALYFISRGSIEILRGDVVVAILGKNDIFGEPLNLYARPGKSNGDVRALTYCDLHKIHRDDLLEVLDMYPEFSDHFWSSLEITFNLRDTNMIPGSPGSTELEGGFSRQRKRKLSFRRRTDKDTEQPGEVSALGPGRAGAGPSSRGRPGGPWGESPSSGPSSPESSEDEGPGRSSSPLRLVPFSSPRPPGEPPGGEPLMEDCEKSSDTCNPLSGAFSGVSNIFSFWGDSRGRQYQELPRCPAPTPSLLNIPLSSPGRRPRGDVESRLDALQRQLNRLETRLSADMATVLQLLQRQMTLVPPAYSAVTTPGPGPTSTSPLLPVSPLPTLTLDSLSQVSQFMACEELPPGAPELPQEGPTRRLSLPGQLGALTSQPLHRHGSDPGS
row,Structure (SMILES),"hERG current change (%, negative = inhibition) at 1uM [%]"
1,CCCN1C(=O)/C(=C/c2ccc(C)o2)SC1=Nc1ccc(OC)cc1,9.04
2,O=C(COc1nsnc1N1CCOCC1)Nc1ccc([N+](=O)[O-])cc1,4.03
3,O=C(NCc1cn(-c2ccccc2)nc1-c1ccccc1)c1ccc([N+](=O)[O-])cc1,4.3
4,COc1ccccc1CNC(=O)CS(=O)(=O)c1ccc(C)cc1,-8.82
5,C=CCc1cc(/C=C2/NC(=O)NC2=O)cc(OCC)c1O,13.9
6,CC(O)(c1ccccc1)C(c1ccccc1)C1CCCCN1 (centres unmarked),5.01
7,Cc1ccc(O)c(Nc2nc(-c3ccccc3)nc3ccccc23)c1,13.9
8,O=C(Cn1c(=O)oc2cc(S(=O)(=O)N3CCc4ccccc43)ccc21)NC1CCCC1,7.19
9,CNC(=O)CSc1nnc(C(C)C)n1C,-4.95
10,O=C(Cn1c(C(F)(F)F)nc2ccccc21)c1ccccc1,2.92
11,CCCCCCCNC(=O)C1(CC2CC(c3ccc(Cl)cc3)=NO2)CCN(C(=O)C2CCCC2)CC1 (centres unmarked),-1.93
12,CCOC(=O)c1ccc(/C=C2/C=C(c3ccccc3)N(c3ccc(Cl)c(C(=O)O)c3)C2=O)cc1,4.2
13,O=C(c1ccccc1)C(Cn1cncn1)C(Sc1ccccc1)c1ccccc1 (centres unmarked),8.96
14,O=C(NCCC(=O)N1CCOCCOCCOCCOCC1)OCc1ccccc1,7.45
15,Cn1cccc1C(=O)NNC(=O)c1ccccc1Br,6.21
16,O=C(Nc1nc(=O)c2ccccc2s1)c1ccc(Cl)cc1,1.03
17,CCN(CC(=O)Nc1ccccc1C(F)(F)F)C(=O)c1ccc2[nH]c3c(c2c1)CC(C)CC3 (centres unmarked),5.83
18,CC1=C(C(=O)N2CCCC(N3CCN(c4ccccc4C)CC3)C2)OCCO1 (centres unmarked),8.7
19,Cc1ccc(Cn2nc(C)c(NC(=O)CCCn3nc([N+](=O)[O-])c(Cl)c3C)c2C)cc1,-19.8
20,CCOC(=O)Cc1csc(NC(=S)NC(=O)c2cc(OC)c(OC)c(OC)c2)n1,7.63
21,COc1ccc(C(C(=O)NC2CCCCC2)N(C(=O)CCl)c2cccc(Cl)c2)cc1 (centres unmarked),10.5
22,CCc1nc(SCc2ccccc2C)n[nH]1,20.8
23,CCn1cc(S(=O)(=O)NCCc2ccc(OC)c(OC)c2)cn1,-33.5

row,Structure (SMILES),"hERG current change (%, negative = inhibition) at 1uM [%]"
1,CCN(CC)C(=S)SCC(=O)NC12CC3CC(CC(C3)C1)C2,9.3
2,O=C1C(=O)N(C/C=C/c2ccccc2)c2ccccc21,10.4
3,CC1CCN(C(=O)Cn2c(=O)n(-c3ccc(F)cc3)c(=O)c3sccc32)CC1,-6.41
4,CCOc1c(C)cc(-c2ncccc2O)cc1C.Cl,0.307
5,Cc1cccc(N(C(=O)Cn2nnc3ccccc32)C(C(=O)NC(C)(C)C)c2ccsc2)c1 (centres unmarked),6.95
6,Nc1ccccc1SCc1ccccc1,8.05
7,NS(=O)(=O)c1cccc(NC(=O)Cn2cc(C(F)(F)F)cc(Cl)c2=O)c1,9.47
8,O=C(O)C1CCCN1C(=O)c1cncc(Br)c1 (centres unmarked),11
9,Cc1nn(-c2ccccc2)c2[nH]c(=O)c(CNc3ccc(N4CCOCC4)cc3)cc12,9.72
10,COc1ccc(NC(=O)C2=NN(c3ccccc3)C(=O)CC2)cn1,-4.49
11,COc1ccc(-n2nnnc2/C=C\Nc2ccc(C)cc2)cc1,13.7
12,COc1ccccc1C(=O)NCC(=O)NCCSc1ccc(Br)cc1,16.7
13,CCCc1cc(=O)[nH]c(SCC(=O)N(C)CC(=O)Nc2ccc(F)cc2)n1,16.2
14,O=C(CCCc1nc(-c2ccccc2)no1)NCc1cccnc1,2.98
15,COc1cc2ccnc(Cc3cccc(OC)c3OC)c2cc1OC.Cl,9.51
16,CCOC(=O)C1=C(O)/C(=C\c2ccc(O)c(OCC)c2)N=C1C,8
17,CCCCc1cc(=O)oc2cc(OCC(=O)N3CCc4ccccc43)ccc12,11
18,Br.N#CCC(=O)NN1Cc2ccccc2C1=N,6.7
19,COc1cc2c(cc1NC(=O)CCC(=O)O)oc1ccccc12,13
20,Cc1ccc(NC(=O)/C(=C\c2cccc([N+](=O)[O-])c2)NC(=O)c2cccs2)cc1,4.59
21,COc1ccc(NC(=O)NN2CCN(C)CC2)cc1,16.9
22,COc1ccc(CNCCc2ccc(Cl)cc2Cl)cc1,13.2
23,C/C(Cn1cnc([N+](=O)[O-])n1)=N/NC(=O)COc1c(Cl)cc(Cl)cc1Cl,-6.47

row,Structure (SMILES),"hERG current change (%, negative = inhibition) at 1uM [%]"
1,CCC(=O)NC(=S)Nc1ccc(Cl)cn1,11.3
2,CC(C)(C)c1ccc(C(=O)Nc2ccc(S(N)(=O)=O)cc2)cc1,13.9
3,COc1ccc(C(=O)N(CC2CCCO2)C(C(=O)NC2CCCC2)c2ccc(Cl)cc2)cc1OC (centres unmarked),4.89
4,COc1cc(/C=C2/S/C(=N/S(=O)(=O)c3ccccc3)NC2=O)c([N+](=O)[O-])cc1OC,11.6
5,CCOc1ccc(C(=O)NCC(=O)OC(C)C(=O)NCc2ccco2)cc1OCC (centres unmarked),6.82
6,O=C(COc1ccc(Cl)cc1)Nc1cc(S(=O)(=O)N2CCCCC2)ccc1N1CCCCC1,13.9
7,COCCOC(=O)C1=C(C)NC(=O)NC1c1ccc(Cl)cc1 (centres unmarked),2.6
8,Cc1c(Cl)c([N+](=O)[O-])nn1CC(=O)Nc1c(C)n(C)n(-c2ccccc2)c1=O,4.72
9,CN(C(=O)OC(C)(C)C)c1ccc(-c2nc3ccccc3s2)cc1,28.1
10,COc1cccc(NC(=O)Nc2ccc(Br)cn2)c1,12.5
11,CN1CCN(c2ccc([N+](=O)[O-])cc2C(=O)N2CCCCC2)CC1,0.394
12,Cc1cc(C)c(NC(=O)CN2CCC(NC(=O)NC3CCCCC3)CC2)c(C)c1,8.8
13,Cc1cc(C(=O)CCC(=O)N2CCN(c3ccccc3)CC2)c(C)s1,5.33
14,COc1ccc(OC)c(S(=O)(=O)n2cnc3ccccc32)c1,8.57
15,CCC(=O)Oc1ccc(C/C(=N\O)c2ccc(O)cc2O)o1,4.36
16,COc1cc2ncnc(NCc3ccc(C)cc3)c2cc1OC,10.3
17,O=C(NCCS(=O)(=O)N1CCN(c2cccc(Cl)c2)CC1)C1CCCC1,-23.9
18,COc1cc([N+](=O)[O-])cc2sc(NC(=O)c3c(F)cccc3F)nc12,0.451
19,CCc1ccc(CNC(=O)C(=O)NCC2CCCO2)cc1 (centres unmarked),9.88
20,COC(=O)CSc1ncnc2c1cnn2-c1ccc(C)cc1C,4.7
21,COc1ccc(CC(=O)Nc2ccc3c(c2)CCC3)cc1OC,-4.34
22,O=C(c1cc(-c2cccs2)on1)N1CCCc2ccccc21,11.5
23,COc1ccc(S(=O)(=O)NCC(=O)N(CC(=O)NCc2ccco2)C2CCCC2)cc1,12.2

row,Structure (SMILES),"hERG current change (%, negative = inhibition) at 1uM [%]"
1,COc1ccc(C2CC(=O)Nc3cc(OC)c(OC)cc32)cc1Br (centres unmarked),12.9
2,Cc1cccc(C)c1OC(=O)Cc1ccccc1[N+](=O)[O-],3.17
3,CCOc1ccc(NC(=S)N(CCCN2CCOCC2)Cc2cn(C)c3ccccc23)cc1,7
4,Cc1ccc(NC(=O)CCSc2nc(C)cc(C)n2)cc1,-0.237
5,COc1cccc(-c2sc3ccc(OC)cc3c2-c2ccc(C(N)=O)cc2)c1,19
6,CCSc1nnc(Cn2c(=O)sc3ccccc32)n1-c1ccc(OC)cc1,3.69
7,CN1/C(=C\C=C2/SC(=S)NC2=O)C(C)(C)c2ccccc21,9.8
8,CCC1CCCCN1C(=O)COc1ccc2c3c(c(=O)oc2c1)CCC3 (centres unmarked),5.08
9,CCC1CCCCN1CCCNC(=O)c1ccc(N2CCCC2=O)cc1 (centres unmarked),14.4
10,Cc1cccc(-c2n[nH]c(=S)n2/N=C/c2ccco2)c1,13.3
11,CCOC(=O)c1nn(-c2ccccc2F)c2nc(-c3ccco3)c(C#N)c(=O)n12,16.7
12,O=c1c2cccc(Cl)c2nc2n1Cc1ccccc1-2,12.7
13,Cc1cc(C)c(C(=O)COC(=O)c2c(C)noc2C)cc1C,-4.15
14,CCOc1ccc(S(=O)(=O)NCc2ccccc2Cl)cc1C(N)=O,18.2
15,CC1CCN(S(=O)(=O)N2CCC(C(=O)O)CC2)CC1,9.96
16,CCN(CC)C(=S)SCC(=O)c1ccccc1,8.8
17,Cc1cccc(NS(=O)(=O)c2cc3c4c(c2)CCN4C(=O)CC3)c1C,8.41
18,C/C(=N\NC(=O)Cn1ccc(C(F)(F)F)n1)c1ccc(N2CCOCC2)cc1,13.9
19,C=CCn1c(O)c2ccc(C(=O)N=NC(=O)COc3ccccc3F)cc2c1O,15.7
20,CC(OC(=O)CC(NC(=O)c1ccccc1Cl)c1ccccc1)C(=O)Nc1cccc(Cl)c1Cl (centres unmarked),-0.371
